Assay results published in the RNAGym collection of RNA variant scans (doi:10.7554/elife.90254).
The source gives no read counts; variants with many changes may rest on few reads.

B1: LINE1-mini (parent)
chain: GGCAGAGCUCAACACAGCGUGGCAAAGUGGCUGUGGCUAGACUGCC

Variants of: B1
Test: self-cleavage, relative activity (ratio to wild type); higher = more cleavage; in vitro, sequencing; the parent is a self-cleaving ribozyme
A12U G17C G33U gave a self-cleavage of 0.05.
Variant G21U C31G G36U has a self-cleavage of 0.04.
With U32G G35A C37A G40C the self-cleavage was 0.12.
Work on A11U G21U A26C yielded a self-cleavage of 0.12.
Work on G7U G22U C23U C42A yielded a self-cleavage of 0.06.
In the case of U9A A11U U20G C23G U32C G33C C46G, the self-cleavage is reported as 0.
Work on G5C C10A C18U G40C yielded a self-cleavage of 0.02.
Variant C3A A11C C13G G21C A41U C42U has a self-cleavage of 0.01.
G17C A25U G29C G35A showed a self-cleavage of 0.02.
A4G A24U U43G showed a self-cleavage of 0.01.
Work on A6U C8U A12U A26G U43C yielded a self-cleavage of 0.
A4C C10A G17C C45G gave a self-cleavage of 0.06.
Variant A6G C13A C18G G19A G40A has a self-cleavage of 0.01.
In the case of G2C A11U U20G U32G U34G C42G, the self-cleavage is reported as 0.01.
Work on A6U G30U A41U C46U yielded a self-cleavage of 0.11.
For G2A A4C A16U G17U, the self-cleavage was 0.03.
With C13A G17C A25U G40A the self-cleavage was 0.06.
Variant U20A G27A A41C C45U has a self-cleavage of 0.03.
For C23A U28A G40U C46A, the self-cleavage was 0.32.
C3A G17C G27C G40A A41U showed a self-cleavage of 0.13.
Work on G1U C15U C23G U32C G35A C46A yielded a self-cleavage of 0.03.
In the case of G7U C15U U20G U32G G36A, the self-cleavage is reported as 0.39.
In the case of A11U A12C C13U C15G U34C, the self-cleavage is reported as 0.02.
In the case of C8U G19C U20G, the self-cleavage is reported as 0.09.
C15G G17U C18U C23A C45A gave a self-cleavage of 0.04.
With A6U C10G C13U G27U C46U the self-cleavage was 0.01.
Variant A4C G5C G21A has a self-cleavage of 0.27.
Work on G5C C8G G19A U28A G30U yielded a self-cleavage of 0.06.
C10G A12C A14G G27A C37G showed a self-cleavage of 0.
For G1U C10G C37A, the self-cleavage was 0.01.
C3G G7U C23U gave a self-cleavage of 0.13.
Variant G1A G22C G30A G40U has a self-cleavage of 0.03.
Variant G19A G22U C42U has a self-cleavage of 1.51.
For C3A C15A C18A A26G G44U, the self-cleavage was 0.07.
With A6U G27A G36U the self-cleavage was 0.03.
With C13U G21A G22A G30C G33C the self-cleavage was 0.02.
A11G A14G G29C G40U showed a self-cleavage of 0.01.
With G1U A11C G40A C42G the self-cleavage was 0.
U9C C13G G21C gave a self-cleavage of 0.02.
Work on G30A G36U C37A yielded a self-cleavage of 0.08.
With A11G A12G G29A C31G the self-cleavage was 0.02.
With A14U G19A G22C G36A C37A G44U the self-cleavage was 0.01.
With G1A C13A A25G G27C C37U the self-cleavage was 0.01.
G2U C8G G21U G27U showed a self-cleavage of 0.02.
C10A C37U C46A gave a self-cleavage of 0.01.
Variant C3G U9G C18A G22A A26G U43C C46A has a self-cleavage of 0.03.
With G1A G22C A24U G30U the self-cleavage was 1.73.
Variant G1A C3G A4U G5C A14G G19A C31A has a self-cleavage of 0.35.
Variant C10A C13G A26U G29A U38A has a self-cleavage of 0.02.
For A6U G27C U32A U43A C45A, the self-cleavage was 0.05.
In the case of C8U G21C C31A, the self-cleavage is reported as 0.16.
Variant G2A G29C C31U C37G has a self-cleavage of 0.09.
Variant C10U G17A A24U C31A has a self-cleavage of 0.12.
In the case of A14U A16U C31A G40A C45U, the self-cleavage is reported as 0.03.
For G2U A11C A26U G40A A41G U43G, the self-cleavage was 0.01.
For C37A C42G C45U, the self-cleavage was 0.02.
In the case of G2C G35C U43G, the self-cleavage is reported as 0.09.
G7U G44A C45G showed a self-cleavage of 0.12.
In the case of G1A G36U U38C, the self-cleavage is reported as 0.12.
Work on C10A C31A A39U yielded a self-cleavage of 0.01.
A4U G7C G33U C46A showed a self-cleavage of 0.02.
A11G G21A A24G C31G A41G showed a self-cleavage of 0.07.
For U20G G29A U43C, the self-cleavage was 0.02.
With G2C G5A C10U C18U the self-cleavage was 0.07.
Variant A14G C23A G35A has a self-cleavage of 0.08.
A4C C15G C23A U38A gave a self-cleavage of 0.02.
Variant C8G G27A C37U U38A has a self-cleavage of 0.05.
Work on C3A G5A C23A G29C yielded a self-cleavage of 0.05.
Variant A11U A24C U34A has a self-cleavage of 0.01.
Variant G22A G27A G44U has a self-cleavage of 0.22.
C8A C23U G29A gave a self-cleavage of 0.22.
C18U U20A U32C C46U showed a self-cleavage of 0.04.
With G5U A16U G35C C45U the self-cleavage was 0.04.
C10U G17A G22A gave a self-cleavage of 1.06.
A6U G22C G27C G44U C46U showed a self-cleavage of 0.08.
G7A A14G A16C gave a self-cleavage of 0.12.
Variant A12G C18A A24C U32A has a self-cleavage of 0.01.
With U28G G30C G35A the self-cleavage was 0.2.
With G2U A4G G5A U9A C13A C15U the self-cleavage was 0.03.
In the case of C8A A12C C15G C23A A25U, the self-cleavage is reported as 0.02.
Variant C18U U38C C45U has a self-cleavage of 0.11.
Work on U9C C15U U20A A25C G35A yielded a self-cleavage of 0.02.
Variant A16G C18A G33U U34G has a self-cleavage of 0.04.
In the case of G7A C13A C31U C45A, the self-cleavage is reported as 0.02.
